Data taken from the supplement of paper PMC9446081.
The campaign covered roughly 39,000 compounds. About 220 (0.56%) showed activity. This is one part of the list.

test system: Escherichia coli K-12 BW25113; assay: relative growth (OD600 normalised to plate interquartile mean) (fraction); higher = less growth inhibition, active = 0.2 or less; conditions: 50 µM; LB; incubation time: overnight (16-24 h)
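Also: static incubation at 37 °C against the wild-type strain, values averaged over two biological replicates.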

Structure (SMILES) | relative growth
C[C@@H]1CCCCO[C@@H](CN(C)C(=O)Nc2cccc3ccccc23)[C@H](C)CN([C@H](C)CO)C(=O)c2cc(NC(=O)Nc3ccccc3)ccc2O1 | inactive: 1.04
C[C@H](CO)N1C[C@H](C)[C@@H](CN(C)Cc2ccc(C(=O)Nc3ccccc3N)cc2)Oc2c(NC(=O)C3CCCCC3)cccc2C1=O | inactive: 1.01
C[C@@H]1CCCCO[C@H](CN(C)C(=O)Nc2ccc3c(c2)OCO3)[C@@H](C)CN([C@H](C)CO)C(=O)c2cc(NC(=O)Nc3ccc(C(F)(F)F)cc3)ccc2O1 | inactive: 0.998
O=C(C[C@@H]1C=C[C@H](NC(=O)C2CCOCC2)[C@@H](CO)O1)NCCc1cscn1 | inactive: 0.988
C[C@@H]1CN([C@H](C)CO)C(=O)c2cccc(NC(=O)C3CCCCC3)c2O[C@H]1CN(C)C(=O)Nc1cccc2ccccc12 | inactive: 0.98
C[C@H](CO)N1C[C@H](C)[C@H](CN(C)C(=O)Nc2ccc(F)cc2)OCCCC[C@H](C)Oc2ccc(NC(=O)CCCN(C)C)cc2C1=O | inactive: 0.989
Cc1noc(C)c1NC(=O)Nc1ccc2c(c1)CC(=O)N([C@@H](C)CO)C[C@H](C)[C@H](CN(C)S(C)(=O)=O)O2 | inactive: 0.982
C[C@@H]1CN([C@H](C)CO)C(=O)c2cc(NS(C)(=O)=O)ccc2O[C@@H]1CN(C)C(=O)Nc1ccc(C(F)(F)F)cc1 | inactive: 0.922
Cc1ccc(S(=O)(=O)Nc2ccc3c(c2)C(=O)N([C@H](C)CO)C[C@@H](C)[C@H](CN(C)C(=O)CCC(F)(F)F)OCCCC[C@@H](C)O3)cc1 | inactive: 0.981
Nc1ncc(O)cn1 | inactive: 1
C[C@@H]1CCCCO[C@@H](CN(C)S(=O)(=O)c2ccc(Cl)cc2)[C@@H](C)CN([C@H](C)CO)C(=O)c2cc(NC(=O)Nc3ccc4c(c3)OCO4)ccc2O1 | inactive: 0.986
C[C@@H]1CN([C@H](C)CO)C(=O)c2cccc(NC(=O)Nc3ccccc3)c2O[C@@H]1CN(C)Cc1ccc(Cl)c(Cl)c1 | inactive: 1.08
C[C@@H]1CCCCO[C@H](CN(C)C(=O)NC2CCCCC2)[C@H](C)CN([C@H](C)CO)C(=O)c2cc(NC(=O)NC3CCCCC3)ccc2O1 | inactive: 1.01
C[C@@H]1CN([C@H](C)CO)C(=O)c2cc(NC(=O)Nc3ccccc3)ccc2O[C@@H](C)CCCCO[C@@H]1CN(C)Cc1ccc2c(c1)OCO2 | inactive: 1.01
CCC[C@@H](O)C#Cc1cnc2c(c1)C(=O)N([C@H](C)CO)C[C@H](C)[C@H](CN(C)S(=O)(=O)c1ccc(F)cc1)O2 | inactive: 0.979
Cc1ccc(S(=O)(=O)N(C)C[C@@H]2Oc3ccc(NC(=O)Cn4cnnn4)cc3C(=O)N([C@@H](C)CO)C[C@H]2C)cc1 | inactive: 1.01
Cc1ccc(S(=O)(=O)Nc2cccc3c2O[C@@H](CN(C)Cc2ccc(C(F)(F)F)cc2)[C@H](C)CN([C@H](C)CO)C3=O)cc1 | inactive: 1.04
Cc1ccc(S(=O)(=O)Nc2ccc3c(c2)C(=O)N([C@H](C)CO)C[C@@H](C)[C@@H](CN(C)S(=O)(=O)c2ccc(C)cc2)OCCCC[C@H](C)O3)cc1 | inactive: 1.04
C[C@@H]1CCCCO[C@H](CN(C)S(=O)(=O)c2ccccc2)[C@@H](C)CN([C@H](C)CO)C(=O)c2cc(NC(=O)Nc3ccc(F)cc3)ccc2O1 | inactive: 1.01
NC(=O)NO | inactive: 1.07

Structure (SMILES) | relative growth
COc1ccc(-c2ccc3c(c2)O[C@@H](CN(C)CC2CCOCC2)[C@H](C)CN([C@@H](C)CO)S3(=O)=O)cc1 | inactive: 1.04
Clc1ccccc1C(c1ccccc1)(c1ccccc1)n1ccnc1 | inactive: 1.2
O=C(CCCCCC(=O)N/N=C/[C@H](O)[C@@H](O)[C@H](O)[C@H](O)CO)NO | inactive: 0.988
C[C@@H]1CCCCO[C@H](CN(C)Cc2ccccc2)[C@@H](C)CN([C@H](C)CO)C(=O)c2cc(NC(=O)Nc3ccc4c(c3)OCO4)ccc2O1 | inactive: 0.972
CN(C)CCCNC(=O)[C@@]1(Cc2ccccc2I)c2ccccc2C(=O)N(C2CCCCC2)[C@H]1c1ccc(CO)cc1 | inactive: 1.01
COc1ccc2c3c([nH]c2c1)[C@@H](CO)N(CC1CCCCC1)C[C@]13CCN(CC1)C(=O)Nc1cccc(c1)F | inactive: 0.995
C[C@H](CO)N1C[C@H](C)[C@H](CN(C)CC2CCCCC2)Oc2ccc(NC(=O)CCCCCC(=O)Nc3ccccc3N)cc2C1=O | inactive: 0.982
CN(C)CC(=O)N1CC2(C1)[C@H](c1ccccc1)[C@@H](CO)N2S(C)(=O)=O | inactive: 0.986
C[C@H](CO)N1C[C@H](C)[C@@H](CN(C)C(=O)CCCN(C)C)OCCCC[C@H](C)Oc2ccc(NC(=O)Nc3ccc(C(F)(F)F)cc3)cc2C1=O | inactive: 0.928
O=C(C[C@@H]1C=C[C@@H](NS(=O)(=O)c2ccc(F)cc2)[C@@H](CO)O1)NCc1ccc(Cl)c(Cl)c1 | inactive: 1.01
O=C(CN1CCOCC1)N[C@@H]1CC[C@H](CCNC(=O)Nc2cc(F)ccc2F)O[C@H]1CO | inactive: 1.01
COCC#Cc1ccc2c(c1)O[C@@H](CN(C)S(=O)(=O)c1ccc(C)cc1)[C@@H](C)CN([C@@H](C)CO)S2(=O)=O | inactive: 1.03
NCc1ccoc1 | inactive: 0.982
O=C(O)CCCCCCCCCCCC[C@@H]1C=CCC1 | inactive: 1.02
O=C(C[C@H]1CC[C@@H](NC(=O)CN2CCOCC2)[C@@H](CO)O1)NCCc1ccccc1 | inactive: 1.01
COc1ccccc1S(=O)(=O)N(C)C[C@@H]1OCc2cnnn2CCCC(=O)N([C@H](C)CO)C[C@@H]1C | inactive: 1
CS(=O)(=O)N1CCc2c(-c3cnc(N)nc3)nc(N3CCOCC3)nc21 | inactive: 1.02
C[C@H]1CN([C@@H](C)CO)C(=O)c2cccc(NS(=O)(=O)c3cn(C)cn3)c2O[C@H]1CN(C)S(=O)(=O)c1cccs1 | inactive: 1.01
Cc1noc(C)c1NC(=O)N(C)C[C@@H]1OCCCC[C@@H](C)Oc2ccc(NC(=O)Nc3ccc(F)cc3)cc2C(=O)N([C@H](C)CO)C[C@@H]1C | inactive: 0.99
COc1ccc(C(=O)Nc2cccc(CN3C(=O)[C@]4(O[C@H](CC(=O)N(CCO)Cc5ccccc5)[C@@H]([Si](C)(C)c5ccc(OC)cc5)[C@@H]4C)c4ccccc43)c2)cc1 | inactive: 0.854

Structure (SMILES) | relative growth
COc1ccc(S(=O)(=O)N2C[C@H](O)COC[C@@H]3O[C@@H](CC(=O)NCCCN4CCOCC4)CC[C@H]32)cc1 | inactive: 0.999
Cc1ccc(S(=O)(=O)N(C)C[C@@H]2Oc3ccc(NS(=O)(=O)c4ccc(F)cc4)cc3C(=O)N([C@H](C)CO)C[C@H]2C)cc1 | inactive: 1.01
O=C(C[C@@H]1CC[C@@H]2[C@H](COC[C@H](O)CN2S(=O)(=O)c2cccc(F)c2)O1)NCc1ccncn1 | inactive: 0.997
C[C@@H]1CC[C@@]2(OC1)O[C@H]1C[C@H]3[C@H]4C[C@@H](O)[C@H]5C[C@@H](O[C@@H]6O[C@H](CO)[C@H](O[C@@H]7O[C@H](CO)[C@@H](O)[C@H](O[C@@H]8OC[C@@H](O)[C@H](O)[C@H]8O)[C@H]7O[C@@H]7O[C@H](CO)[C@@H](O)[C@H](O)[C@H]7O)[C@H](O)[C@H]6O)CC[C@]5(C)[C@@H]4CC[C@]3(C)[C@H]1[C@@H]2C | inactive: 0.967
COc1ccc(S(=O)(=O)Nc2ccc3c(c2)C(=O)N([C@@H](C)CO)C[C@H](C)[C@H](CN(C)Cc2ccc(C(F)(F)F)cc2)OCCCC[C@H](C)O3)cc1 | inactive: 1.05
C[C@H]1CN([C@@H](C)CO)C(=O)c2cc(NS(=O)(=O)c3ccc(Cl)cc3)ccc2O[C@H]1CN(C)S(=O)(=O)c1cn(C)cn1 | inactive: 0.986
C[C@H]1CN([C@@H](C)CO)C(=O)c2cccc(NC(=O)c3ccncc3)c2O[C@H]1CN(C)S(=O)(=O)c1cn(C)cn1 | inactive: 0.985
C[C@@H]1CCCCO[C@H](CN(C)CC2CCCCC2)[C@H](C)CN([C@H](C)CO)C(=O)c2cc(NC(=O)Nc3cccc4ccccc34)ccc2O1 | inactive: 0.948
Cc1ccc(S(=O)(=O)N(C)C[C@@H]2Oc3c(NS(=O)(=O)c4cccs4)cccc3C(=O)N([C@@H](C)CO)C[C@@H]2C)cc1 | inactive: 1.03
O=C(C[C@@H]1CC[C@@H]2[C@H](COC[C@@H](O)CN2C(=O)c2ccccc2F)O1)N1CCN(c2ccccc2)CC1 | inactive: 0.989
C[C@@H]1CN([C@H](C)CO)C(=O)c2c(c3ccccc3n2C)-c2ccccc2CO[C@H]1CN(C)C(=O)[C@H](C)c1ccccc1 | inactive: 1.01
CCCC(CCC)C(=O)[O-].[Na+] | inactive: 0.979
Cc1ccc(S(=O)(=O)Nc2ccc3c(c2)CC(=O)N([C@@H](C)CO)C[C@@H](C)[C@H](CN(C)C(=O)Nc2ccc(C(F)(F)F)cc2)O3)cc1 | inactive: 0.992
COc1ccc(S(=O)(=O)Nc2ccc3c(c2)CC(=O)N([C@@H](C)CO)C[C@@H](C)[C@H](CN(C)C(=O)NC(C)C)O3)cc1 | inactive: 1
COCC(=O)Nc1ccc2c(c1)C(=O)N(C)[C@@H]1CC[C@@H](CC(=O)NCc3ccc(OC)cc3)O[C@H]1CO2 | inactive: 0.975
CCC(=O)NCc1nccc(N(C)C)n1 | inactive: 1.02
C[C@@H]1CN([C@@H](C)CO)C(=O)c2cccc(NC(=O)c3cnccn3)c2O[C@@H]1CN(C)S(=O)(=O)c1cn(C)cn1 | inactive: 1.01
CO[C@@H]1CN(C)C(=O)c2ccc(NS(=O)(=O)c3cn(C)cn3)cc2OC[C@@H](C)N(CC2CC2)C[C@H]1C | inactive: 1
